The list shows a part of the results. The list includes weakly bound sequences.
Molecular target: T1, MBP-FoxP3dN (UniProt Q99JB6)
T1 sequence: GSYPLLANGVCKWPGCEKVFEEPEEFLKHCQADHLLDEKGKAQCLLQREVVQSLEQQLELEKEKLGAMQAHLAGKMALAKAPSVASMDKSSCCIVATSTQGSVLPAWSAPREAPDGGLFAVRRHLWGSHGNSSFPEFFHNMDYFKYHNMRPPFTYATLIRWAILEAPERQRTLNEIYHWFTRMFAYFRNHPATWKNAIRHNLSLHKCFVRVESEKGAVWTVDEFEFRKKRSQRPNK
Experiment: PD-seq (MBP pull-down with sequencing)
Conditions: 20 mM Tris-HCl pH 7.5, 100 mM NaCl, 1.5 mM MgCl2, 0.4 uM protein, 0.1 uM dsDNA library, 30 min, room temperature, amylose pull-down; high values mean tight binding; double strand, one strand shown

| Sequence | binding signal (RPM ratio (pull-down/input)) |
| --- | --- |
| GATGATTGTTCTCCCAGCTGATGAATTTTTACTGTCGAGTAAACAAATTTTCCTAATCTTTCTGTTCAAGCGCCATCTAC | 0.24 |
| GATGATTGTTCTCCCAGCTGATGAATTTAGGTAGTCGAGTAAACAAATTTTCCTAATCTTTCTGTTCAAGCGCCATCTAC | 0.605 |
| GATGATTGTTCTCCCAGCTGATGAATTCGCTGAGTCGAGTAAACAAATTTTCCTAATCTTTCTGTTCAAGCGCCATCTAC | 0.267 |
| GATGATTGTTCTCCCAGCTGATGAATTCACGACTTCGAGTAAACAAATTTTCCTAATCTTTCTGTTCAAGCGCCATCTAC | 0.437 |
| GATGATTGTTCTCCCAGCTGATGAATTTGTTCGGTCGAGTAAACAAATTTTCCTAATCTTTCTGTTCAAGCGCCATCTAC | 2.81 |
| GATGATTGTTCTCCCAGCTGATGAATTAATACCGTCGAGTAAACAAATTTTCCTAATCTTTCTGTTCAAGCGCCATCTAC | 0.429 |
| GATGATTGTTCTCCCAGCTGATGAATTTGTACCCTCGAGTAAACAAATTTTCCTAATCTTTCTGTTCAAGCGCCATCTAC | 2.74 |
| GATGATTGTTCTCCCAGCTGATGAATTCTTGTGTTCGAGTAAACAAATTTTCCTAATCTTTCTGTTCAAGCGCCATCTAC | 0.821 |
| GATGATTGTTCTCCCAGCTGATGAATTGTTACTATCGAGTAAACAAATTTTCCTAATCTTTCTGTTCAAGCGCCATCTAC | 1.1 |
| GATGATTGTTCTCCCAGCTGATGAATTGCGGTGTTCGAGTAAACAAATTTTCCTAATCTTTCTGTTCAAGCGCCATCTAC | 1.42 |
| GATGATTGTTCTCCCAGCTGATGAATTTGGTTATTCGAGTAAACAAATTTTCCTAATCTTTCTGTTCAAGCGCCATCTAC | 3.56 |
| GATGATTGTTCTCCCAGCTGATGAATTTATAAGCTCGAGTAAACAAATTTTCCTAATCTTTCTGTTCAAGCGCCATCTAC | 0.585 |
| GATGATTGTTCTCCCAGCTGATGAATTACCAGACTCGAGTAAACAAATTTTCCTAATCTTTCTGTTCAAGCGCCATCTAC | 0.211 |
| GATGATTGTTCTCCCAGCTGATGAATTATCCTTATCGAGTAAACAAATTTTCCTAATCTTTCTGTTCAAGCGCCATCTAC | 0.317 |
| GATGATTGTTCTCCCAGCTGATGAATTTGCGCCGTCGAGTAAACAAATTTTCCTAATCTTTCTGTTCAAGCGCCATCTAC | 0.938 |
| GATGATTGTTCTCCCAGCTGATGAATTGCCTAGATCGAGTAAACAAATTTTCCTAATCTTTCTGTTCAAGCGCCATCTAC | 0.369 |
| GATGATTGTTCTCCCAGCTGATGAATTGACGCCCTCGAGTAAACAAATTTTCCTAATCTTTCTGTTCAAGCGCCATCTAC | 0.785 |
| GATGATTGTTCTCCCAGCTGATGAATTTAGAGGGTCGAGTAAACAAATTTTCCTAATCTTTCTGTTCAAGCGCCATCTAC | 0.435 |
| GATGATTGTTCTCCCAGCTGATGAATTTAACCAATCGAGTAAACAAATTTTCCTAATCTTTCTGTTCAAGCGCCATCTAC | 0.302 |
| GATGATTGTTCTCCCAGCTGATGAATTCCCTAGTTCGAGTAAACAAATTTTCCTAATCTTTCTGTTCAAGCGCCATCTAC | 0.228 |
| GATGATTGTTCTCCCAGCTGATGAATTGGTAGAGTCGAGTAAACAAATTTTCCTAATCTTTCTGTTCAAGCGCCATCTAC | 0.325 |

| Sequence | binding signal (RPM ratio (pull-down/input)) |
| --- | --- |
| GATGATTGTTCTCCCAGCTGATGAATTAAGCCATTCGAGTAAACAAATTTTCCTAATCTTTCTGTTCAAGCGCCATCTAC | 4.08 |
| GATGATTGTTCTCCCAGCTGATGAATTACAGTGATCGAGTAAACAAATTTTCCTAATCTTTCTGTTCAAGCGCCATCTAC | 0.552 |
| GATGATTGTTCTCCCAGCTGATGAATTGACGCCTTCGAGTAAACAAATTTTCCTAATCTTTCTGTTCAAGCGCCATCTAC | 2.27 |
| GATGATTGTTCTCCCAGCTGATGAATTATAGTAATCGAGTAAACAAATTTTCCTAATCTTTCTGTTCAAGCGCCATCTAC | 0.658 |
| GATGATTGTTCTCCCAGCTGATGAATTTGGAAAGTCGAGTAAACAAATTTTCCTAATCTTTCTGTTCAAGCGCCATCTAC | 0.21 |
| GATGATTGTTCTCCCAGCTGATGAATTGGCAAAGTCGAGTAAACAAATTTTCCTAATCTTTCTGTTCAAGCGCCATCTAC | 0.247 |
| GATGATTGTTCTCCCAGCTGATGAATTTGCGATCTCGAGTAAACAAATTTTCCTAATCTTTCTGTTCAAGCGCCATCTAC | 1.23 |
| GATGATTGTTCTCCCAGCTGATGAATTCCGCATTTCGAGTAAACAAATTTTCCTAATCTTTCTGTTCAAGCGCCATCTAC | 6.33 |
| GATGATTGTTCTCCCAGCTGATGAATTATGGCACTCGAGTAAACAAATTTTCCTAATCTTTCTGTTCAAGCGCCATCTAC | 0.958 |
| GATGATTGTTCTCCCAGCTGATGAATTGCAACCGTCGAGTAAACAAATTTTCCTAATCTTTCTGTTCAAGCGCCATCTAC | 1.97 |
| GATGATTGTTCTCCCAGCTGATGAATTGCGACCTTCGAGTAAACAAATTTTCCTAATCTTTCTGTTCAAGCGCCATCTAC | 0.908 |
| GATGATTGTTCTCCCAGCTGATGAATTATCTTTGTCGAGTAAACAAATTTTCCTAATCTTTCTGTTCAAGCGCCATCTAC | 0.849 |
| GATGATTGTTCTCCCAGCTGATGAATTGCAGGAATCGAGTAAACAAATTTTCCTAATCTTTCTGTTCAAGCGCCATCTAC | 0.431 |
| GATGATTGTTCTCCCAGCTGATGAATTATGTGCCTCGAGTAAACAAATTTTCCTAATCTTTCTGTTCAAGCGCCATCTAC | 1.56 |
| GATGATTGTTCTCCCAGCTGATGAATTACGTCCCTCGAGTAAACAAATTTTCCTAATCTTTCTGTTCAAGCGCCATCTAC | 0.691 |
| GATGATTGTTCTCCCAGCTGATGAATTGAAATCTTCGAGTAAACAAATTTTCCTAATCTTTCTGTTCAAGCGCCATCTAC | 0.246 |
| GATGATTGTTCTCCCAGCTGATGAATTTTACGAATCGAGTAAACAAATTTTCCTAATCTTTCTGTTCAAGCGCCATCTAC | 0.25 |
| GATGATTGTTCTCCCAGCTGATGAATTGAGCGGATCGAGTAAACAAATTTTCCTAATCTTTCTGTTCAAGCGCCATCTAC | 0.265 |
| GATGATTGTTCTCCCAGCTGATGAATTAAACAAATCGAGTAAACAAATTTTCCTAATCTTTCTGTTCAAGCGCCATCTAC | 0.847 |
| GATGATTGTTCTCCCAGCTGATGAATTTGTTGTGTCGAGTAAACAAATTTTCCTAATCTTTCTGTTCAAGCGCCATCTAC | 8.35 |
| GATGATTGTTCTCCCAGCTGATGAATTGGAGGGATCGAGTAAACAAATTTTCCTAATCTTTCTGTTCAAGCGCCATCTAC | 0.208 |

| Sequence | binding signal (RPM ratio (pull-down/input)) |
| --- | --- |
| GATGATTGTTCTCCCAGCTGATGAATTCGCCCACTCGAGTAAACAAATTTTCCTAATCTTTCTGTTCAAGCGCCATCTAC | 0.406 |
| GATGATTGTTCTCCCAGCTGATGAATTCTGTCGATCGAGTAAACAAATTTTCCTAATCTTTCTGTTCAAGCGCCATCTAC | 0.612 |
| GATGATTGTTCTCCCAGCTGATGAATTAGGAGGTTCGAGTAAACAAATTTTCCTAATCTTTCTGTTCAAGCGCCATCTAC | 0.35 |
| GATGATTGTTCTCCCAGCTGATGAATTACTATGATCGAGTAAACAAATTTTCCTAATCTTTCTGTTCAAGCGCCATCTAC | 0.43 |
| GATGATTGTTCTCCCAGCTGATGAATTGGCACCTTCGAGTAAACAAATTTTCCTAATCTTTCTGTTCAAGCGCCATCTAC | 0.387 |
| GATGATTGTTCTCCCAGCTGATGAATTCGTCAATTCGAGTAAACAAATTTTCCTAATCTTTCTGTTCAAGCGCCATCTAC | 0.469 |
| GATGATTGTTCTCCCAGCTGATGAATTTGTGGTTTCGAGTAAACAAATTTTCCTAATCTTTCTGTTCAAGCGCCATCTAC | 5.11 |
| GATGATTGTTCTCCCAGCTGATGAATTCCACGTCTCGAGTAAACAAATTTTCCTAATCTTTCTGTTCAAGCGCCATCTAC | 0.386 |
| GATGATTGTTCTCCCAGCTGATGAATTTCTGTGCTCGAGTAAACAAATTTTCCTAATCTTTCTGTTCAAGCGCCATCTAC | 0.339 |
| GATGATTGTTCTCCCAGCTGATGAATTCCTATCTTCGAGTAAACAAATTTTCCTAATCTTTCTGTTCAAGCGCCATCTAC | 0.331 |
| GATGATTGTTCTCCCAGCTGATGAATTCTGAAGCTCGAGTAAACAAATTTTCCTAATCTTTCTGTTCAAGCGCCATCTAC | 0.281 |
| GATGATTGTTCTCCCAGCTGATGAATTTGGCACATCGAGTAAACAAATTTTCCTAATCTTTCTGTTCAAGCGCCATCTAC | 0.97 |
| GATGATTGTTCTCCCAGCTGATGAATTACGTATCTCGAGTAAACAAATTTTCCTAATCTTTCTGTTCAAGCGCCATCTAC | 3.75 |
| GATGATTGTTCTCCCAGCTGATGAATTCAACGGATCGAGTAAACAAATTTTCCTAATCTTTCTGTTCAAGCGCCATCTAC | 0.237 |
| GATGATTGTTCTCCCAGCTGATGAATTAGGTCTGTCGAGTAAACAAATTTTCCTAATCTTTCTGTTCAAGCGCCATCTAC | 0.395 |
| GATGATTGTTCTCCCAGCTGATGAATTGTCTAGGTCGAGTAAACAAATTTTCCTAATCTTTCTGTTCAAGCGCCATCTAC | 0.364 |
| GATGATTGTTCTCCCAGCTGATGAATTCCTCCTGTCGAGTAAACAAATTTTCCTAATCTTTCTGTTCAAGCGCCATCTAC | 0.198 |
| GATGATTGTTCTCCCAGCTGATGAATTAGCAGGGTCGAGTAAACAAATTTTCCTAATCTTTCTGTTCAAGCGCCATCTAC | 0.346 |
| GATGATTGTTCTCCCAGCTGATGAATTGCGGCTCTCGAGTAAACAAATTTTCCTAATCTTTCTGTTCAAGCGCCATCTAC | 0.817 |
| GATGATTGTTCTCCCAGCTGATGAATTGGCCTCGTCGAGTAAACAAATTTTCCTAATCTTTCTGTTCAAGCGCCATCTAC | 0.618 |
| GATGATTGTTCTCCCAGCTGATGAATTGTGGACGTCGAGTAAACAAATTTTCCTAATCTTTCTGTTCAAGCGCCATCTAC | 0.655 |

Source: PMC12820563
